In PubChem BioAssay AID463173 (ICCB-Longwood Screening Facility, Harvard Medical School, 2010):
The campaign covered roughly 52,000 compounds. About 1,700 (3.3%) were called active. Rule as the data show it: active = survival mostly below about 52% (no sharp cut-off); inactive = mostly above about 56%. The list shows a part of the results.

The compounds below were run on Wild type (assay: S. aureus survival, RN4220 and DeltatarO strains – OD600, teichoic acid synthesis inhibitors, primary screen (AID 463173)). Settings: S. aureus RN4220 wild type/DeltatarO growth, OD600, 18 h, active compounds read low, screened at 18.75 µg/mL (by protocol).

Row | Structure (SMILES) | survival
1 | O=C(COCc1cc(-c2cccs2)on1)Nc1cccc(O)c1 | active: -3%
2 | CCS(=O)(=O)NCCc1csc2nc(-c3ccc(C)cc3)nn12 | inactive: 59%
3 | Cc1ccc(-n2cnc3cc(C(=O)NC4CCCCCC4)ccc32)cc1Cl | inactive: 129%
4 | Cc1cccc(-n2c(-c3ccco3)nc3c(cnn3-c3ccc(F)cc3)c2=O)c1 | inactive: 95%
5 | COC(=O)c1c(C)sc(-c2c(-c3ccc4c(c3)OCCO4)[nH]c3c2c(=O)[nH]c(=O)n3C)c1O | inactive: 72%
6 | COc1ccc(-c2nn(C)c3sc(C(=O)N4CCN(c5cccc(Cl)c5)CC4)cc23)cc1OC | inactive: 59%
7 | CC1CCc2c(sc(NC(=O)c3cc(-c4ccc(Br)cc4)on3)c2C(N)=O)C1 (stereo not drawn) | inactive: 143%
8 | O=C(O)Cn1nnnc1SCC(=O)Nc1ccc(F)cc1F | inactive: 108%
9 | CCNc1nc(NC(C)(C)C)nc(N2CCCCC2)n1 | inactive: 98%
10 | COc1ccc(NC(=O)C2CCN(S(=O)(=O)c3c(C)noc3/C=C/c3ccc(C)cc3)CC2)cc1Cl | inactive: 84%
11 | Cc1c(CNCCCc2ccccc2)c(C(=O)O)c(C)n1Cc1cccc(Cl)c1 | inactive: 99%
12 | Cc1ccc(OCc2cc(=O)n3cc(C)sc3n2)c(C)c1 | inactive: 57%
13 | Cc1ccc(NS(=O)(=O)c2ccc3[nH]c4c(c3c2)CCCCC4)cc1 | inactive: 84%
14 | COc1ccc(S(=O)(=O)c2cn(C)c3cc(N4CCOCC4)c(F)cc3c2=O)cc1 | inactive: 72%
15 | COC(=O)CC1Oc2ccc(Cl)cc2-n2cc(-c3ccc(F)cc3)nc21 (stereo not drawn) | inactive: 96%
16 | O=C(COc1ccccc1)Nc1c(Cl)ccc2nsnc12 | inactive: 70%
17 | CC(=O)N1CCc2cc(S(=O)(=O)N3CCN(c4ccc(C)cc4)C(C)C3)ccc21 (stereo not drawn) | inactive: 90%
18 | CCc1ccc(OCC(=O)Nc2ccc(Cl)c(-c3nc4ncccc4o3)c2)cc1 | inactive: 59%
19 | CCc1ccc(OCC(=O)Nc2ccc3oc(-c4ccc(OC)cc4)nc3c2)cc1 | inactive: 79%
20 | Cc1ccc(C)c(N(C)S(=O)(=O)c2ccc3[nH]cc(C(=O)NC4CCCC4)c(=O)c3c2)c1 | inactive: 68%
21 | CCOc1ccc(S(=O)(=O)NCC(c2cccs2)S(=O)(=O)c2ccc(C)cc2)cc1 (stereo not drawn) | inactive: 94%
22 | O=C1OCc2cc(-n3[nH]nnc3=S)ccc21 | inactive: 109%

Row | Structure (SMILES) | survival
23 | CCN1CCN(C(=O)c2c(C)nn(-c3ccc(F)cc3)c2-n2cccc2)CC1 | inactive: 85%
24 | CC(C)(C)NC(=O)CCSc1nc(-c2ccc3c(c2)OCO3)cc(C(F)(F)F)n1 | active: 4%
25 | CCC(C(=O)NCCc1cc(OC)ccc1OC)n1nc(C)c2sc3ccccc3c2c1=O (stereo not drawn) | inactive: 80%
26 | Cc1cc(-c2nc3ncccc3o2)ccc1NC(=O)COc1cc(C)c(Cl)c(C)c1 | inactive: 80%
27 | CN(Cc1ccccc1)c1ccc(-c2nc(-c3cccnc3)no2)cc1[N+](=O)[O-] | inactive: 84%
28 | CCN(Cc1ccccc1)S(=O)(=O)c1ccc2[nH]c3c(c2c1)CCCCC3 | inactive: 70%
29 | Cc1c(C(=O)OCCOc2ccccc2)[nH]c2c1C(=O)CC(c1ccccc1Cl)C2 (stereo not drawn) | inactive: 83%
30 | CCOC(=O)c1cccc(NC(=O)c2nn(-c3ccc(OC)cc3)c(=O)c3c2c2ccccc2n3C)c1 | inactive: 78%
31 | CCOC(=O)c1cnc2nc(NCc3ccc(OCC)cc3)[nH]n2c1=O | inactive: 92%
32 | Cc1ccc(C)c(NC(=O)CSc2nc(-c3ccccc3Cl)nc3c2Cc2c(CO)cnc(C)c2O3)c1 | inactive: 109%
33 | CCCCOc1ccc(C(=O)NCCc2csc(-c3ccc(OC)cc3)n2)cc1 | inactive: 120%
34 | CN(C)c1ccc(CNC(=O)c2cccn2-c2nnc(N3CCCCC3)s2)cc1 | inactive: 65%
35 | O=C(NCc1ccc(F)cc1)C(=O)NCC(c1cccs1)S(=O)(=O)c1cccs1 (stereo not drawn) | inactive: 71%
36 | CC(C)N(C(=O)Cn1nnc2ccccc21)C(C(=O)NCc1ccco1)c1ccccc1 (stereo not drawn) | inactive: 101%
37 | COc1ccccc1CNC(=O)c1ccc2c(c1)N(Cc1ccc(C)cc1)CCS2 | inactive: 84%
38 | COc1ccc(CSCCN)cc1Cl | inactive: 110%
39 | O=S1(=O)CCC(NS(=O)(=O)c2ccccc2)C1 (stereo not drawn) | inactive: 106%
40 | CCN(CC)S(=O)(=O)c1ccc2c(c1)N(CC(=O)NCC(C)c1ccccc1)C(=O)CO2 (stereo not drawn) | inactive: 91%
41 | CCc1ccccc1NC(=O)CN1C(=O)COc2ccc(S(=O)(=O)N3CCCCCC3)cc21 | inactive: 101%
42 | Cc1ccc(-n2ncc3c(N4CCCCCC4)ncnc32)cc1C | inactive: 68%
43 | CCn1cc(C(=O)N2CCN(c3ccccc3OC)CC2)c(=O)c2cc(S(=O)(=O)N3CCC(C)CC3)ccc21 | inactive: 86%
44 | CC(C)Oc1ccc(CNC(=O)c2ccccc2NC(=O)c2nsc3ccccc23)cc1 | inactive: 124%

Row | Structure (SMILES) | survival
45 | CNS(=O)(=O)c1cn(CC(=O)N2CCN(c3cccc(Cl)c3)CC2)cc1S(=O)(=O)NC | inactive: 73%
46 | O=C(CCCCn1c(=O)c2ccccc2n(Cc2ccccc2F)c1=O)NCc1ccccc1Cl | inactive: 101%
47 | CCN(CC)C(=O)C1=CC(c2ccc3c(c2)OCO3)=NS(=O)(=O)N1C | inactive: 85%
48 | Cc1ccc(NC(=O)CSc2nc3ccc(NC(=O)CCc4ccccc4)cc3s2)c(C)c1 | inactive: 85%
49 | c1ccc(Oc2ccc(N=NN3CCCCC3)cc2)cc1 | inactive: 97%
50 | CCC(Oc1ccccc1)C(=O)Nc1ccc(OCc2cc(=O)n3ccc(C)cc3n2)cc1 (stereo not drawn) | inactive: 63%
51 | Cc1oc(-c2ccccc2F)nc1CSCC(=O)NCCc1ccccc1 | inactive: 89%
52 | COC(=O)c1ccc(CN(Cc2ccc(OC)c(OC)c2)S(=O)(=O)c2cc(C(=O)Nc3cccc(C)c3)ccc2F)cc1 | inactive: 75%
53 | O=S(=O)(NCCc1nnc2ccc(SCc3c(F)cccc3Cl)nn12)c1ccccc1 | inactive: 78%
54 | COc1ccc(N2C(=O)CS(=O)(=O)C23C(=O)N(Cc2c(F)cccc2Cl)c2ccccc23)cc1 (stereo not drawn) | inactive: 88%
55 | CCC(=O)N(C)c1nnc(-c2cccc(C)c2)s1 | inactive: 122%
56 | CC(C)CCNC(=O)c1cc(Sc2ccc(F)cc2F)nc2ccccc12 | inactive: 75%
57 | CCCCn1cc(S(=O)(=O)c2ccccc2)c(=O)c2cc(F)c(N3CCC(C)CC3)cc21 | inactive: 86%
58 | CCOC(=O)c1cnc2c(C)cc(C)cc2c1Nc1ccc(OCc2ccccc2)cc1 | active: 11%
59 | COc1ccc(NC(=O)C2=C(C)Nc3ncnn3C2c2ccccn2)cc1 (stereo not drawn) | inactive: 55%
60 | CCOC(=O)C1=C(C(F)(F)F)Nc2ncnn2C1c1cccc(OC)c1OC (stereo not drawn) | inactive: 99%
61 | NC(=O)CSc1n[nH]c(-c2ccco2)n1 | inactive: 103%
62 | O=C(CN1CCN(CC(=O)Nc2ccccc2F)CC1)Nc1ccc(Cl)c(C(F)(F)F)c1 | inactive: 89%
63 | COc1cccc(C(=O)Nc2ccc3c(c2)COC3=O)c1 | inactive: 102%
64 | CCOc1ccc(CNC(=O)CCc2cn(CC)c3ccccc23)cc1 | inactive: 85%
65 | CC1=C(c2ccc(C)c(C)c2)S(=O)(=O)N=C1N1CCC(C(=O)N2CCCCC2)CC1 | inactive: 129%
66 | COc1cc(C(=O)Nc2ccc(OCc3cc(=O)n4cccc(C)c4n3)cc2)cc(OC)c1OC | inactive: 133%

Row | Structure (SMILES) | survival
67 | O=C(NCCc1ccccc1)c1ccc(CSc2nc3ccncc3n2Cc2cccc(F)c2)cc1 | inactive: 133%
68 | CCNc1nc(N2CCCC2)nc(N2CCCC2)n1 | inactive: 111%
69 | CCc1ccc(NC(=O)C2CCN(S(=O)(=O)c3c(C)noc3/C=C\c3ccc(OC)cc3)CC2)cc1 | inactive: 84%
70 | CCN(CC)C(=O)c1sc2c(c1C)c(=O)n(CCc1ccccc1)c(=O)n2Cc1cccc(Cl)c1 | inactive: 74%
71 | CCCCOc1ccc(CN2C(=O)C(=O)c3cc(C)ccc32)cc1OC | inactive: 87%
72 | COc1ccccc1CNc1ccc(-c2nc(-c3cccc(C)c3)no2)cc1[N+](=O)[O-] | inactive: 100%
73 | O=C(NC1CCCC1)C1CCCN1C(=O)Nc1ccccc1 (stereo not drawn) | inactive: 105%
74 | CN(C)c1ccc(CNC(=O)c2ccc3c(c2)N(C)C(=O)C2CCCCN32)cc1 (stereo not drawn) | inactive: 121%
75 | O=C(c1cnc(N2CCOCC2)c2ccccc12)N1CCN(c2ccccc2F)CC1 | inactive: 74%
76 | CCOc1ccccc1N1CC(c2nc3ccccc3n2CCCCOc2cc(C)ccc2C)CC1=O (stereo not drawn) | inactive: 43%
77 | COc1ccc(-n2nc(C(=O)NCc3ccc(F)cc3)c3c4ccccc4n(C)c3c2=O)cc1 | inactive: 79%
78 | COC(=O)c1c(NC(=O)COc2ccc(OC)cc2)sc2c1CCC(C)C2 (stereo not drawn) | inactive: 86%
79 | Cc1cc(C)cc(OCCSc2nc(-c3ccc(C(C)(C)C)cc3)nc3cc(=O)[nH]n23)c1 | inactive: 77%
80 | O=S(=O)(c1ccc(-n2cnnn2)cc1)N(Cc1ccccn1)C1CC1 | inactive: 111%
81 | CCCc1cc(=O)[nH]c2nnc(SCCC(C)C)n12 | inactive: 73%
82 | COc1cc(NC(=O)CSc2ccc(-c3sc(-c4ccccc4)nc3C)nn2)cc(OC)c1 | inactive: 41%
83 | COc1ccc(CN2CCN(S(=O)(=O)c3ccccc3)CC2)c(OC)c1 | inactive: 80%
84 | CC(C)Oc1ccc(CNC(=O)C2CCCN(S(=O)(=O)c3ccc4c(ccn4C)c3)C2)cc1 (stereo not drawn) | inactive: 128%
85 | CCCn1cc(S(=O)(=O)c2ccc(OC)cc2)c(=O)c2cc(F)c(N3CCCCCC3)cc21 | inactive: 59%
86 | CCn1cc(S(=O)(=O)c2ccc(C)cc2C)c(=O)c2cc(F)c(N3CCCC3)cc21 | inactive: 82%
87 | Cc1ccc(CSc2nnc3[nH]c(=O)cc(C)n23)cc1 | inactive: 83%
88 | CCC(=O)N1c2ccccc2CC1C(=O)NCCc1ccc(OC)cc1OC (stereo not drawn) | inactive: 66%
